The results in this text go back to the supplement of paper PMC3334620.

Over roughly 33,000 sequences, “E-score (-0.5 to 0.5)” has its median near -0.041; the highest 2% begin near 0.37. The list shows a part of the results.

The target of the assay is T1, Ecm22 (UniProt Q05958).
T1 sequence: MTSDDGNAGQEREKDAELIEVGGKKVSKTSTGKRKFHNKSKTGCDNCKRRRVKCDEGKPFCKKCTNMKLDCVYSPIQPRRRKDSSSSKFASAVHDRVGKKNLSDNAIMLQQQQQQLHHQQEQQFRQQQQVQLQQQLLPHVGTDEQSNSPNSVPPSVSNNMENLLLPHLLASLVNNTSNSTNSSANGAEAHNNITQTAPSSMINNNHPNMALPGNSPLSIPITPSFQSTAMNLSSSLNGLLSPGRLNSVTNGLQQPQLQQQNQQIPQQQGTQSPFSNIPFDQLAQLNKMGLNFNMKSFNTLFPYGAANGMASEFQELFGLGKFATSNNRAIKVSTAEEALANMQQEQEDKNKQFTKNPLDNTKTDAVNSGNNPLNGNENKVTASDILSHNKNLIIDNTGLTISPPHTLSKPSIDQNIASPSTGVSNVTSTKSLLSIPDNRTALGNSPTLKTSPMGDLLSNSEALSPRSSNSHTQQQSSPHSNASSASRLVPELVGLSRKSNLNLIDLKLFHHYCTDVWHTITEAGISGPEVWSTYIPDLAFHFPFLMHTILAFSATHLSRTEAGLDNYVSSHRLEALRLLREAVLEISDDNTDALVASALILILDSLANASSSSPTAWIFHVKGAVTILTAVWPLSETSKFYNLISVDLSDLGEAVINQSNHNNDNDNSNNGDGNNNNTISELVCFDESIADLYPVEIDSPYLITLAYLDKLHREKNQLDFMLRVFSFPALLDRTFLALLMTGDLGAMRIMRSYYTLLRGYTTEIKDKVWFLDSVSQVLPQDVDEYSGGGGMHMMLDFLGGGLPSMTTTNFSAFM
Kind of assay: PBM E-score (8-mer binding enrichment) (E-score (-0.5 to 0.5)); higher = stronger / more preferred TF binding; most listed sequences are background and not binding sites. To be noted: protein concentration: 200 nM; construct: GST-full length. The essentials:
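The E-score, a modified Wilcoxon-Mann-Whitney statistic, was computed by the Universal PBM Analysis Suite for every ungapped eight-base word pooled with its reverse complement. Scans behind it were normalised with masliner after bound GST-tagged yeast transcription factors were detected with fluorescent anti-GST. The proteins, at about 100-200 nM, had been applied to universal all-10-mer Agilent arrays made double-stranded by primer extension.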
For CGGCCCCG, the “PBM E-score” value was -0.0779. CTATCTAA: the “PBM E-score” value was -0.103. The value for GCAGGCAA was -0.0787; that for AGTCCAGG was -0.315.

In the case of CGATGCAC, the “PBM E-score” value came to 0.066.

On to CAACCGCG, for which the “PBM E-score” value came to 0.0366. Next, AACAAGAT: 0.0794; AGGGTTTC: -0.283. Next, CGGTTCCA: 0.119. The value for GCTGTCAC was -0.196; that for GATCACAC was -0.108. Take CACTCTAG: the “PBM E-score” value is -0.165. For CCCGGAGG, the “PBM E-score” value is -0.219. The value for CTGAAAAA was -0.117; that for AGAACGGG was 0.18; that for ACACCGCC was -0.0179.

As to ACAACGTA, the “PBM E-score” value was 0.132. Next, CCTTATTC: -0.125; GGCCCAAC: -0.13.

For the sequence ACCACATG, the “PBM E-score” value was -0.0253. The value for CCGGAACA was -0.0629. Next, GCTCTGAC: -0.213.

Take TAAATGAA: the “PBM E-score” value is -0.0696. The value for ACCCCGTC was -0.165. With ACTTAGGC, the “PBM E-score” value is -0.248.

In the case of CTGCCAAC, the “PBM E-score” value is -0.0937.

As to AGTTAAAC, the “PBM E-score” value worked out at 0.194. Next, AACCATGC: -0.138.

As to AAAGTCAA, the “PBM E-score” value was -0.177. Next, ACGGCCAG: -0.0436.

For the sequence GGATGGAC, the “PBM E-score” value is -0.0459. The value for CATTCTGA was -0.0836; that for ACAGTTCA was 0.0913. The value for ATCACTGC was 0.051; that for CGCCTCCA was -0.134. The value for CCTCCCGA was -0.00453.

In the case of CTACCCGC, the “PBM E-score” value was -0.164.

Consider TCACTGGA, for which the “PBM E-score” value is -0.31. With GAACGATC, the “PBM E-score” value is 0.432.

For the sequence GTCTGTAA, the “PBM E-score” value is -0.0348. Next, CACCCTAA: -0.116; GCGCTCAA: -0.0981. Next, CTCGACTC: 0.0837. With ATGGTAAG, the “PBM E-score” value is -0.178. The value for GAAATTCC was -0.182. The value for ACCTACAA was -0.0896; that for ACAGGTAC was 0.168; that for TATCAGGA was 0.118.

Consider AACGCGCC, for which the “PBM E-score” value worked out at 0.126.

In the case of AAATAGTT, the “PBM E-score” value was -0.0664.

For CAAACATC, the “PBM E-score” value was -0.00603.

As to GCGGACGC, the “PBM E-score” value was -0.104. Turning to CCCATTGC, the “PBM E-score” value is -0.141.

Turning to CCATATGG, the “PBM E-score” value was 0.0188. In the case of AAGCAGGA, the “PBM E-score” value is -0.0106.

For the sequence GGCCTTAA, the “PBM E-score” value is -0.165. Next, TCTGCCAA: -0.123; GGGCTGTA: -0.108. The value for TACCGGTA was 0.0548; that for AATGCGGA was 0.0872. Next, AGACGATA: 0.143; AACCAAGT: 0.0954; CTGAGTCA: -0.123. Take ATGAGAGA: the “PBM E-score” value was -0.0934. The value for ATGTGACC was -0.0819. The value for CCCCCAGC was -0.27; that for CATACCGA was 0.107. Next, AGACCTGC: -0.304.

Regarding AGTCTGCC, the “PBM E-score” value is -0.238. The value for AACCGAAA was 0.235.

Turning to AAGACTTA, the “PBM E-score” value was -0.135.

With CGACTGGA, the “PBM E-score” value amounted to 0.137.

In the case of GGTCCCAA, the “PBM E-score” value is -0.153. The value for CCTGGTCA was -0.311; that for CACGCATG was -0.167; that for AGATCGTG was -0.0112. The value for AAGGCCCA was -0.237; that for AATCATCT was -0.222.

With CACGGCGG, the “PBM E-score” value was -0.16. As to ACCTATCA, the “PBM E-score” value is -0.109. Next, AAGATAAG: -0.146. Next, ACCTAGTA: -0.257; TTCTGCAA: 0.0702. On to ATACGCAT, for which the “PBM E-score” value was 0.301.

As to ATATGCTC, the “PBM E-score” value worked out at 0.0994. The value for GTTAGCTA was -0.115; that for GTTAAGCA was -0.0308. The value for CCGGAATA was -0.0385. Next, ATCAAATG: 0.00866.

With GCAGACAC, the “PBM E-score” value is 0.0272. For AGAATGCA, the “PBM E-score” value came to 0.11. The value for CGGCATGC was 0.12; that for ACTAGGGG was -0.24; that for TGCCTACA was -0.0971.
